Our source for the binding signal values is article PMC6212790.

The other results are listed elsewhere or left out. At the low end of the ranking, values are background and their order means little.

This experiment addresses T1, GST-Rok-C97-191 (UniProt O34857).
T1 sequence: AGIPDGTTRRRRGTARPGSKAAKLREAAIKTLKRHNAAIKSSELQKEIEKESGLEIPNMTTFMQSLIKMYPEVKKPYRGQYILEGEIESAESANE
Put plainly: protein binding microarray.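 Note: rank score from −0.5 (least bound) to 0.5 (best bound).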 The settings on record: Rok is a gene silencer of Bacillus subtilis; high values mean tight binding; most listed sequences are background and not binding sites; double strand, one strand shown.
Turning to GGCAGCAA, the binding signal was -0.0597 E-score. AGCCCCAA: the binding signal was -0.167 E-score. Next, CGGCAGCC: -0.182 E-score; CCCGAAAA: 0.0648 E-score.

With CGAGCAAA, the binding signal is -0.00441 E-score. With ATCCCTTG, the binding signal was -0.112 E-score. The value for AGGCTCTC was -0.242 E-score; that for GAGAGGAC was -0.278 E-score; that for GGCGACGA was -0.297 E-score. As for AGGTATTG, the binding signal was found to be 0.168 E-score. For AATGTGGG, the binding signal came to 0.0924 E-score. Sequence CTCTTGGC displayed a binding signal of 0.0601 E-score. Next, TATTACAA: 0.254 E-score; CACGGATC: -0.0864 E-score.

With ATTGTCGC, the binding signal is -0.0869 E-score.

Sequence GCAGGAGC displayed a binding signal of -0.247 E-score. As for AGGTATTC, the binding signal was -0.0121 E-score. For the sequence CATAGGAC, the binding signal worked out at 0.15 E-score.

As to CTTTTGAA, the binding signal is -0.0177 E-score. The value for CCCCCGCC was -0.353 E-score; that for CAGGCCCA was -0.348 E-score; that for CAGGAATG was -0.083 E-score. Take ATCCACCA: the binding signal turned out to be 0.00743 E-score.

GGTAGCCA displayed a binding signal of -0.0323 E-score. GGTTATAA yielded a binding signal of 0.0781 E-score.

The sequence CCTCTCCG had a binding signal of -0.221 E-score. As to ACGACCCC, the binding signal is -0.0896 E-score. The sequence AACTGAGC yielded a binding signal of 0.0188 E-score. The value for AGAAAGTA was 0.313 E-score. As for CCAGGACG, the binding signal is -0.112 E-score. The value for ATGCCAAT was -0.01 E-score; that for CCCTCAGC was -0.342 E-score; that for AAACCCCG was -0.299 E-score. Next, ACGTCGCG: 0.0663 E-score; CGCTTTAC: -0.24 E-score. Next, AATAACGA: 0.169 E-score; TACAGGTA: 0.184 E-score. AATGTAGG showed a binding signal of 0.198 E-score.

Consider AGCCGCGG, for which the binding signal is -0.194 E-score.

AAAATTGT returned a binding signal of 0.272 E-score. The sequence AATCAGGT displayed a binding signal of 0.183 E-score. The value for ACCGCTCA was -0.00862 E-score; that for CACATCCA was -0.0233 E-score; that for CTCGTGTA was -0.11 E-score.

CATCAAGA showed a binding signal of -0.0734 E-score.

In turn, CTTTAAAC displayed a binding signal of 0.126 E-score. Next, ATTTCCAA: 0.107 E-score; AAACGTAC: 0.0928 E-score; AAGGTACG: -0.121 E-score. Next, CCGTTAAA: 0.0635 E-score. Sequence TAAGTCTA gave a binding signal of 0.127 E-score. For CGAGCGTC, the binding signal was -0.148 E-score.

Consider CGTCCACA, for which the binding signal was -0.0974 E-score.

Take ACATTGCA: the binding signal was found to be 0.0494 E-score. The value for AGATTCCC was 0.0107 E-score; that for ACCGACAT was -0.16 E-score; that for ATCACGTC was -0.223 E-score. For CTACAGTA, the binding signal came to 0.235 E-score. Next, GCTAACTA: 0.324 E-score; GAGGGCGC: -0.306 E-score. CGCAATAC returned a binding signal of 0.0892 E-score.

In turn, ATGATATG returned a binding signal of 0.226 E-score. GAGGGCAC came in with a binding signal of -0.304 E-score. Regarding AATCCGCG, the binding signal was -0.0425 E-score. ATAGAAAA gave a binding signal of 0.267 E-score. The value for ACCTTCAA was -0.121 E-score; that for CGAGTGAG was -0.0199 E-score; that for CCCACTTC was -0.179 E-score. The value for CCTCAAGG was -0.331 E-score. The value for ATCATGGA was -0.000195 E-score; that for CGAGGAAA was -0.193 E-score; that for TCGACGCA was 0.0176 E-score. CCACACTC returned a binding signal of -0.323 E-score.

The sequence ATTGCCAG showed a binding signal of 0.03 E-score. The value for GACTGAGC was -0.0475 E-score. For the sequence ATGGTAAT, the binding signal stood at 0.253 E-score. The value for CACGCGTA was -0.079 E-score. GGGAGGGA: the binding signal is -0.221 E-score. Next, CCAACTCC: -0.177 E-score. AGCTCGAA registered a binding signal of -0.102 E-score.

As to AGAGTCAC, the binding signal was -0.277 E-score. In the case of CTTCGTCC, the binding signal is -0.209 E-score.

CGTATGGA displayed a binding signal of -0.0296 E-score. The value for TACCCCTA was 0.0755 E-score; that for GTCTTAAC was -0.294 E-score; that for TAATGCAA was 0.186 E-score. CCCGCGCA showed a binding signal of -0.211 E-score. For CCAAGTCG, the binding signal was -0.0866 E-score.

With AGGCTCAA, the binding signal was -0.315 E-score. ATCCCAAA showed a binding signal of 0.024 E-score. ATGCACGA returned a binding signal of -0.0316 E-score. The value for CCTGAACC was -0.277 E-score; that for ATAGCACG was 0.0885 E-score; that for GTCGGCAA was -0.13 E-score.

AGTGTAAT returned a binding signal of 0.179 E-score. The value for ACCTCTGG was -0.202 E-score. As to AGTTTGCA, the binding signal came to 0.133 E-score. Sequence TTAAGGAA registered a binding signal of -0.117 E-score. The value for GTAGTAAA was 0.338 E-score; that for AACTGGTC was 0.000777 E-score; that for CAATTCAA was 0.00242 E-score. The value for CCCCAGCG was -0.232 E-score. Next, ACTATGTC: 0.0678 E-score; AGTACCTG: -0.0538 E-score. As to CCGACATA, the binding signal is 0.152 E-score. ATGCGTTG showed a binding signal of -0.0732 E-score. Sequence GTGATGTA displayed a binding signal of 0.0843 E-score. Sequence CCCAATGA showed a binding signal of -0.194 E-score. Next, GGCGCGAC: -0.141 E-score; ACGACCGA: 0.00138 E-score.

GCACCTGA returned a binding signal of -0.175 E-score. The value for ACTTCGCG was -0.0968 E-score; that for CGAGAAAA was 0.0987 E-score. Next, TACTTAAA: 0.198 E-score; GTTAGAAA: 0.195 E-score.

As to ACCATACT, the binding signal was 0.144 E-score. Sequence AGCTCGCA showed a binding signal of -0.0853 E-score.

GCAACAGC: the binding signal is -0.159 E-score.

Turning to CAATGGTG, the binding signal is -0.119 E-score.

On to ACTCGCAA, for which the binding signal worked out at 0.0586 E-score. The value for CGGCCCGA was -0.245 E-score; that for AACATGTG was 0.0826 E-score.

For the sequence GGTCCTAC, the binding signal was -0.119 E-score. As for GCCCGATA, the binding signal was 0.00316 E-score.

Take GCCAGCAA: the binding signal stood at 0.118 E-score.

The sequence CAGCGAAA returned a binding signal of 0.0919 E-score. On to AATTTAAG, for which the binding signal came out at 0.175 E-score. Next, CGAACTAC: 0.373 E-score; AAATCTTG: 0.0764 E-score; AGGTATAG: 0.231 E-score. Next, GCCCGGAC: -0.205 E-score. Next, CTCCCCTA: -0.243 E-score; CATGGGTC: -0.0107 E-score; TCCCTACA: -0.107 E-score.

Regarding CGTGTTTA, the binding signal turned out to be 0.0983 E-score. The value for TAATCTCA was 0.179 E-score; that for ATGCTGTG was 0.144 E-score; that for GGTATTAC was 0.212 E-score.

The sequence TCAGAAAA registered a binding signal of -0.198 E-score. AAGGTTGG returned a binding signal of -0.0102 E-score.

Regarding AGGGGAGC, the binding signal is -0.22 E-score. For the sequence ATGGAGGG, the binding signal is -0.27 E-score. Next, AGACACCT: -0.181 E-score; CACCAACA: -0.0417 E-score; TAAACTGA: 0.0784 E-score. As to AGGGGTAG, the binding signal is 0.126 E-score.

The sequence GAATCTAA displayed a binding signal of 0.188 E-score. Next, CCCGCCAC: -0.275 E-score; TAACTTGA: 0.0586 E-score.

Consider TATACGGA, for which the binding signal stood at 0.265 E-score. Take AGTACAAG: the binding signal amounted to 0.247 E-score.

AGGAGGCC came in with a binding signal of -0.23 E-score. The value for CCCAGTAG was 0.245 E-score. For ACGTGTTG, the binding signal came to 0.0125 E-score. The value for TAAAAACA was 0.162 E-score. As to ATGGTCAG, the binding signal is -0.115 E-score. The value for ACCCTGGA was -0.0883 E-score. The value for CCTACGTC was -0.139 E-score; that for CTCGCAAG was -0.188 E-score.

In turn, GGATTTTA came in with a binding signal of 0.227 E-score.

In turn, ACTGGGTA returned a binding signal of 0.0664 E-score. With ACGCGTGG, the binding signal is -0.123 E-score. As for CCACGATC, the binding signal is -0.147 E-score.

For AGGGGGTC, the binding signal was -0.461 E-score. Next, AGTACGGA: 0.164 E-score; AAAACGCT: -0.0297 E-score; ACTCGAGA: 0.0428 E-score. The value for CGCTCCTA was 0.0547 E-score; that for AACCAGGT was -0.261 E-score. In the case of ATCTCTGG, the binding signal turned out to be 0.0266 E-score. The value for CCTCCTGA was -0.379 E-score.

As for GCAAGCCC, the binding signal was -0.184 E-score.
